# Experimental data taken from the supplement of paper PMC3656093.
# “And” between values parts separate entries of the source, which are not always exact repeats. Equal entries are not always repeated. ± gives the standard deviation of the averaged measurements. In all, about 1,900 compounds were measured (“CD40L-induced NF-kB luciferase activity, plate-corrected, relative to DMSO (0) and IKK inhibitor VII (-100) controls”: median about 0.032, lowest 2% from about -26 on). The list shows a part of the results.
# Tested on: BL2-NFkB-Luc
# Assay: CD40L-induced NF-kB luciferase activity, plate-corrected, relative to DMSO (0) and IKK inhibitor VII (-100) controls (% normalized activity); higher = more NF-kB reporter activity (less inhibition)
# Conditions: 9.4 µM; stimulus: tCD40L 64 ng/ml; 4.5 h
# Experimental: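 BL2 B cells with a stable NF-kB response-element luciferase reporter (BL2-NFkB-Luc), 384-well. Cells were pre-incubated with compound at 9.4 uM for 1 h at 37 C, then stimulated with 64 ng/ml trimerized CD40L for 4.5 h; luciferase was read with Steady-Glo. Signal was normalised per plate in Genedata (median DMSO neutral control = 0, median IKK inhibitor VII at 50 uM = -100) with Assay Median plate-pattern correction; duplicate plates.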
row,SMILES,CD40L-induced NF-kB luciferase activity
1,COc1ccc(C(=O)Nc2cccc3cccnc23)cc1OC,19.3 ± 10
2,CN(C)CCCN1c2ccccc2Sc2ccc(Cl)cc21,4.73 and 4.04
3,CC1(C)CC(CNCCC(c2ccc(F)cc2)c2ccco2)CCO1 (stereo unspecified),-3.87 ± 7.5
4,O=c1ccc2ccccc2o1,5.33 ± 1.6
5,O=C(O)C[C@@H](O)C(=O)O,0.236 ± 3.4
6,CCc1nc2ccccc2n1Cc1ccc(OC)c(OC)c1,-4.69 ± 1.2
7,O=c1[nH]cnc2c1ncn2[C@@H]1O[C@H](CO)[C@@H](O)[C@H]1O,0.768 ± 3.4
8,O=C(CN1C(=O)c2ccccc2C1=O)Nc1cccc([N+](=O)[O-])c1,3.26 ± 5
9,O=C1C(=O)N2C(=C1C(=O)N1CCCCCC1)c1ccccc1CC21CCCC1,-8.65 ± 3.7
10,C[C@@H]1C[C@H]2[C@@H]3C[C@H](F)C4=CC(=O)C=C[C@]4(C)[C@@]3(F)[C@@H](O)C[C@]2(C)[C@@]1(O)C(=O)COC(=O)C(C)(C)C,-29.5 ± 1.7
11,COc1ccc(CC(=O)c2c(O)cc(O)cc2O)cc1OC,8.04 ± 8.6
12,CC(C)CCC1(CCNC(C)c2cccs2)CCOC(C)(C)C1 (stereo unspecified),-2.91 ± 3.8
13,C=CCNC(=O)c1ccc(-c2cccc([N+](=O)[O-])c2)o1,42.3 ± 3.3
14,COc1cc2c(cc1OC)-c1cc(NC3CCCCCC3)nc(=O)n1CC2,-2.67 ± 1.2
15,Nc1ccn([C@@H]2O[C@H](CO)[C@@H](O)[C@@H]2O)c(=O)n1,-30.5 ± 2.4
16,COc1ccc(NC(=O)CC2C(=O)N(C)C(=S)N2Cc2ccncc2)cc1 (stereo unspecified),3.18 ± 0.39
17,CCOc1ccc(C(=O)/C=C/c2cc(OC)c(OC)c(OC)c2)cc1,-5.34 ± 4.4
18,c1ccc(Cn2nnc3cnccc32)cc1,3.11 ± 1.1
19,O=C(CCN1CCC(c2ccccc2)C1)c1ccc2c(c1)OCCO2 (stereo unspecified),-5.04 ± 8
20,CCOc1cc2c(cc1OCC)C(c1ccccc1)N(c1ccc(C(=O)O)cc1)C(=O)C2 (stereo unspecified),0.452 ± 1.9
21,CC(C)(C)c1ccc(C(O)CCCN2CCC(C(O)(c3ccccc3)c3ccccc3)CC2)cc1 (stereo unspecified),0.124 ± 2
22,CC(=O)Nc1nc(CCC(C)C)cc2c1c(=O)oc1ccccc12,0.806 ± 0.17
23,CC(COc1ccccc1)NC(C)C(O)c1ccc(O)cc1 (stereo unspecified),-2.97 ± 7.5
24,CCc1ccc(CN(C)Cc2nc(Cc3ccccc3)no2)nc1,-1.15 ± 0.5

row,SMILES,CD40L-induced NF-kB luciferase activity
1,CN(C)CCOCCOc1ccc(Cl)cc1Br,-4.58 ± 7
2,O=c1c2ccccc2nc2n1-c1ccccc1CCC2,-5.01 ± 3.7
3,Cn1c2c(c(=O)[nH]c1=O)C(c1ccc(O)cc1)C1=C(N2)c2ccccc2C1=O (stereo unspecified),-7.73 ± 3.6
4,O=C(O)CCCCCN1C(=O)C(=O)/C(=C(/O)c2ccccc2)C1c1ccccc1 (stereo unspecified),-0.297 ± 0.14
5,O=C(Oc1cccccc1=O)c1ccccc1,4.85 ± 4.8
6,Cc1nonc1CN(C)C(=O)c1ccc(OC2CCN(Cc3ccccn3)CC2)cc1,-2.36 ± 0.37
7,C=CCNC(=S)N1CCc2c([nH]c3ccccc23)C1C (stereo unspecified),-1.53 ± 0.54
8,OC[C@H]1O[C@@H](n2cnc3c(Nc4ccccc4)ncnc32)[C@H](O)[C@@H]1O,4.14 ± 2
9,COc1cc2c(cc1OC)CN(C(=O)c1ccc(S(=O)(=O)N(C)c3ccccc3)cc1)CC2,-1.04 ± 2.9
10,CCOc1ccccc1C(=O)NCCC(=O)O,-1.43 ± 3.9
11,Cc1cc(-c2ccccc2)nnc1NCCN1CCOCC1,0.543 ± 2.8
12,OCCN(Cc1nc(-c2ccc3c(c2)OCO3)no1)Cc1cccs1,10.4 ± 0.49
13,Cc1cc(-c2nn(-c3ccccc3F)cc2CN2CCCC(O)C2)c(C)s1 (stereo unspecified),-8.13 ± 0.3
14,CSc1ccc2c(c1)N(CCC1CCCCN1C)c1ccccc1S2 (stereo unspecified),2.81 ± 5.8
15,c1ccc(Cn2ncc3c(Nc4ccccc4)ncnc32)cc1,-4.36 ± 5.5
16,CCCC(CCC)C(=O)OC1C[C@H]2CC[C@@H](C1)[N+]2(C)C (stereo partly specified),2.53 ± 2.9
17,CCC[C@@H]1C[C@@H](C(=O)N[C@@H]([C@H]2O[C@H](SC)[C@H](O)[C@@H](O)[C@@H]2O)[C@@H](C)O)N(C)C1,3.48 ± 1.2
18,O=c1nc2sc3ccccc3n2c(=O)n1-c1ccc(Cl)cc1,43.9 ± 6.1
19,O=C(OCCN1CCOCC1)c1cccs1,-4.77 ± 5.6
20,Cc1ccc(S(=O)(=O)NC(=O)NN2CCCCCC2)cc1,4.36 ± 1
21,COc1ccc(CCn2c(C)nc3c(c(=O)c4ccccc4n3C)c2=O)cc1,-5.83 ± 7.7
22,COC1(C)CC2C(CC1OC(=O)c1cc([N+](=O)[O-])cc([N+](=O)[O-])c1)C2(C)C (stereo unspecified),-2.15 ± 1.7
23,C[C@]12CC[C@@H]3c4ccc(OS(=O)(=O)O)cc4CC[C@H]3[C@@H]1CCC2=O,-3.9 ± 0.34
24,COc1ccccc1NC(=O)C12CCC(C)(C(=O)C1)C2(C)C (stereo unspecified),-2.22 ± 0.13

row,SMILES,CD40L-induced NF-kB luciferase activity
1,OC(CCCN1CCCCC1)(c1ccccc1)c1ccccc1,2.58 ± 4.7
2,CCN(CC)CCOC(=O)C(c1ccccc1)c1ccccc1,0.144 ± 0.79
3,Cc1ccc(O)c(CCc2ccccc2)n1,21.1 ± 3.1
4,CCN(CC)CCNc1ccc(CO)c2sc3ccccc3c(=O)c12,61.35 ± 0.042
5,Cn1nc(-c2ccccn2)nc2c(=O)n(C)c(=O)nc1-2,-19.1 ± 0.82
6,CCCCC[C@H](O)/C=C/[C@@H]1[C@@H](C/C=C\CCCC(=O)OC)[C@@H](O)C[C@H]1O,-2.47 ± 3.2
7,Fc1cc(F)cc(NC(=S)NCCCN2CCOCC2)c1,2.2 ± 2.8
8,Cc1ccsc1/C=C/C1=NCCCN1C,-3.66 ± 2.7
9,COc1ccc(C=O)c(OC)c1,3.69 ± 3
10,COc1ccc(/C=C2\CCn3c2nc2cc(C(=O)O)ccc2c3=O)cc1OC,-3.92 ± 7.8
11,CCOc1ccc(CCn2c(-c3ccco3)nc3ccccc3c2=O)cc1OCC,-12.2 ± 2.2
12,CC(C)CN1CCN(Cc2ccc3ncccc3c2)CC1CCO (stereo unspecified),2.01 ± 3.1
13,O=C(NCCN1CCN(c2ccccc2)CC1)c1cccc(Br)c1,1.12 ± 0.63
14,Cc1cccc(NC(=O)c2cc3ccccc3o2)c1,59.9 ± 28
15,O=C(NN=Cc1ccc([N+](=O)[O-])o1)c1ccc(O)cc1,-1.71 ± 0.97
16,CCOC(=O)c1cnc2ccc(C(=O)OC)cc2c1Nc1ccc2c(c1)OCCO2,-1.39 ± 2.7
17,O=c1cc(Cn2ccnc2)c2cc3c(cc2o1)CCC3,3.94 ± 2.4
18,CC(=O)Nc1ccccc1O,6.2 ± 2.2
19,COc1ccc(C(=O)NCc2cccnc2)cc1,-2.51 ± 0.59
20,S=C(c1ccc2c(c1)OCO2)N1CCCCC1,-1.53 ± 2.3
21,COc1cc2c3c(c1)C(C)CC(C)(C)N3C(=O)C2=O (stereo unspecified),0.117 ± 1.4
22,CC(=O)Oc1ccc2occ(C=Nc3cc(=O)[nH]c(=S)[nH]3)c(=O)c2c1,1.96 ± 2.2
23,COc1ccc(O)c(N)c1,-3.14 ± 0.64
24,C=CCn1c(N2CCCCCC2)nc2c1c(=O)n(C)c(=O)n2C,-8.807 ± 0.026

row,SMILES,CD40L-induced NF-kB luciferase activity
1,S=C(NCc1ccccc1)NCc1cccc(CNC(=S)NCc2ccccc2)c1,2.76 ± 7.2
2,COc1ccc(CN(C)CCc2ccccn2)cc1OC,-3.21 ± 1.3
3,CC(N=C(NC#N)Nc1ccncc1)C(C)(C)C (stereo unspecified),-1.86 ± 0.31
4,CC(=O)OCC(=O)[C@@]1(OC(C)=O)[C@@H](C)C[C@H]2[C@@H]3C[C@H](F)C4=CC(=O)C=C[C@]4(C)[C@@]3(F)[C@@H](O)C[C@@]21C,-17.3 ± 0.28
5,O=C(NO)c1ccccc1O,-8 ± 5.2
6,C#C[C@]1(O)CC[C@H]2[C@@H]3CCC4=CC(=O)CC[C@@H]4[C@H]3CC[C@@]21CC,-3.72 ± 4.1
7,COc1cc2nc(-c3ccccc3)nc(N3CCCC3)c2cc1OC,14.1 ± 1.1
8,CC(=O)OCC(=O)[C@H]1CC[C@H]2[C@@H]3CCC4=CC(=O)CC[C@]4(C)[C@H]3CC[C@]12C,-9.02 ± 3.7
9,CCOC(=O)Cn1c(C)cc(=O)c2ccccc21,0.248 ± 3.4
10,COc1ccc(C(=O)/C=C/c2cc(C(=O)O)cc3c2OCOC3)c(O)c1,-8.03 ± 6.9
11,CNc1nc(N(C)C)nc(N(C)C)n1,-0.683 ± 1.1
12,O=C(O)CP(=O)(O)O,10.9 ± 0.59
13,CCc1cc2c(=O)c(-c3ccc(F)cc3)c(C)oc2cc1OCC(=O)O,1.94 ± 0.96
14,O=C(c1ccc(O)cc1)c1ccc(O)cc1O,4.98 ± 0.29
15,COc1ccccc1C(=O)c1cc2ccc(O)cc2oc1=O,3.01 ± 2
16,COc1cc2c(cc1OC)C(Cc1ccc(O)cc1)N(C)CC2 (stereo unspecified),-0.549 ± 0.081
17,COc1ccc2[nH]c(=O)c(CNC3CCCCC3)cc2c1,2.49 ± 4.4
18,COc1ccccc1OCC(O)COC(N)=O (stereo unspecified),-3.41 ± 4.7
19,CC(=O)CCc1c(C)c2cccc(C)c2[nH]c1=O,1.37 ± 8.8
20,Cc1c2c(nc3c(C)cccc13)OC(C)C2 (stereo unspecified),1.45 ± 0.016
21,COC(=O)c1ccccc1NC(=O)c1ccc(COc2ccc3c(c2)CCC3)cc1,13.3 ± 8.1
22,CN1CCCC(OC(=O)c2ccc3c(c2)OCCO3)C1 (stereo unspecified),0.542 ± 3.1
23,Fc1ccc(-c2cc(-c3ccccc3)nc(-n3cccn3)n2)cc1,-4.51 ± 1.4
24,CC(C)Cc1nc(NCCN2CCOCC2)c(C#N)c2c1COC(C)(C)C2,-2.89 ± 0.75

row,SMILES,CD40L-induced NF-kB luciferase activity
1,c1ccc(CNc2ncnc3nc[nH]c23)cc1,3.9 ± 1.4
2,Cc1ccc2c(c1)C(O)(C1COC(C)(C)CC1=O)C(=O)N2C (stereo unspecified),-0.228 ± 1.6
3,O=C1NCC2=C1C(c1ccccc1)Nc1ccccc1N2 (stereo unspecified),17.82 ± 0.028
4,Cc1ccccc1-c1nn(-c2ccc(F)cc2F)cc1CNCCN(C)C,-0.375 ± 1.3
5,COc1ccc(C2C3=C(OC(C)=O)c4ccccc4C3=Nc3c2c(=O)n(C)c(=O)n3C)cc1 (stereo unspecified),6.21 ± 0.2
6,CC(=O)NC(Cc1c[nH]c2ccccc12)C(=O)NN=Cc1ccccc1 (stereo unspecified),3.28 ± 0.72
7,COC1CCN(Cc2cn(Cc3ccccc3)nc2-c2cc3ccccc3o2)CC1,1.03 ± 0.17
8,Cc1cccc(-c2ncc(CN3CCN(CC(C)C)C(CCO)C3)cn2)c1 (stereo unspecified),-2.36 ± 4.5
9,COc1ccc(Cc2noc(CN(C)CC3(N4CCOCC4)CCCCC3)n2)cc1OC,-2.82 ± 6.4
10,COCCCNc1nc2c([nH]1)c(=O)[nH]c(=O)n2C,3.3 ± 3
11,NCc1ccccc1COc1ccccc1,-4.87 ± 3.4
12,O=C(O)/C=C/c1cnc[nH]1,-1.07 ± 0.34
13,CCN(CC)C(=O)c1sc(NC(=O)c2c(OC)cccc2OC)c(C#N)c1C,4.13 ± 5.4
14,CC1COc2c(N3CCN(C)CC3)c(F)cc3c(=O)c(C(=O)O)cn1c23 (stereo unspecified),-2.61 ± 3.1
15,COc1ccc2[nH]cc(CCNC(=O)C3CCCNC3=O)c2c1 (stereo unspecified),-11.5 ± 4.2
16,CCOC(=O)c1ccc(N2C(=O)C(CC(N)=O)N(CCc3ccc(OC)c(OC)c3)C2=S)cc1 (stereo unspecified),2.87 ± 1.8
17,C[C@H]1O[C@H]1P(=O)(O)O,3.4 ± 3.8
18,CC(C)(C)C(=O)NC(=S)NNC(=O)c1ccncc1,-14 ± 18
19,OCCN(CCO)c1ccc2ccccc2c1,2.64 ± 4.2
20,Cn1cc(C2N3CC4(C)CN2CC(C)(C3)C4=O)c2ccccc21 (stereo unspecified),-1.29 ± 1.8
